The campaign covered roughly 150,000 compounds. About 540 (0.36%) showed an effect of 50% or more. The list shows a part of the results.
system: Plasmodium falciparum; test: Primary screen in NF54 nanoGlo assay, in single point, at 2uM, 72h; a lower Z score goes with more inhibition; type: functional, Erythrocyte; settings: timepoint 72 hour

SMILES | % Inhibition | Z score
O=C(NCCNc1ncccn1)c1cc(Cl)c2c(c1)OCCCO2 | -12% | 2.18
Cc1nccn1Cc1coc(-c2ccc(C(F)(F)F)cc2)n1 | -13% | 1.19
COc1nc(NCC[C@H]2CCCCN2C)ncc1F | 3% | -0.58
Cc1ccc(OC2CN(C3CCNCC3)C2)cc1 | 3% | -0.62
Cn1cc(NS(=O)(=O)c2ccnn2C2CCC2)c(-c2ccco2)n1 | -4% | 0.81
CCN1c2ccccc2C(=O)NC12CCN(C(=O)Nc1ccc(F)c(Cl)c1)CC2 | -1% | 0.16
Cc1cnc(C(=O)Nc2ccccc2C(=O)NCCc2ccccc2)cn1 | -10% | 1.14
COCCNCC(=O)N[C@@H](C)c1c(Cl)ccc(F)c1Cl | -2% | 0.4
Cc1cc(Cl)ccc1NC(=O)[C@@H]1CCC(=O)N1 | -6% | 0.97
C[C@H]1CNCCN1C(=O)c1cn(Cc2cccs2)nn1 | 7% | -1.06
CCc1c(C(=O)O)nnn1-c1ccc2c(c1)CCC2 | -16% | 1.76
CC(C)c1ccc(N2CCC(C(=O)N3CCOCC3)CC2)nn1 | -4% | 0.77
NCC[C@H]1CN(c2cc(-c3ccccc3F)nc3ccnn23)CCO1 | -4% | 0.52
CCNC(=O)N1CCCCC[C@H]1c1nc(COC)no1 | -7% | 1.28
Cc1cc(C)c(C(=O)N2CCC[C@H]2c2nonc2C)c(=O)[nH]1 | -1% | 0.1
O=C(Nc1c(F)cccc1NC1CC1)c1cnns1 | -5% | 0.99
CCOc1cccc(CNc2cccc(C)c2C(N)=O)n1 | -9% | 0.98
O=c1[nH]c(N2CCC(F)(F)CC2)nc2c1Cc1ccccc1OC2 | 3% | -0.53
CCCOc1ccc(CN2CC[C@]3(CO)CN(Cc4ccccc4)C[C@@H]3C2)cc1 | 10% | -1.92
Cc1ccc([C@@H]2Cn3nc(C(=O)Nc4ccccc4C)cc3CO2)cc1 | -6% | 0.83
CCOC(=O)c1cn(CCc2c[nH]cn2)cc(Oc2ccccc2)c1=O | 0% | -0.09
CC1CCC(N(C)C(=O)c2ccc3ccccc3n2)CC1 (centres undefined) | -3% | 0.32

SMILES | % Inhibition | Z score
Cc1nc(CCNC(=O)[C@H]2CCCN2S(=O)(=O)c2c(C)noc2C)cs1 | -17% | 2.19
Cc1nc[nH]c1C(=O)N1CCN(Cc2ccccc2)[C@@H]2CS(=O)(=O)C[C@@H]21 | -10% | 0.95
CN(CCF)S(=O)(=O)c1ccc(F)c(Br)c1F | -13% | 1.93
CC(=O)N1CC(C(=O)NCc2cccc(C(F)(F)F)c2)CCC1c1cccc(C)c1 (centres undefined) | -1% | 0.18
O=C(Nc1ccc(Cl)cn1)C1CC2C=CC1C2 (centres undefined) | -12% | 1.73
Cc1ccc(S(=O)(=O)CC(=O)Nc2nnc(-c3cccs3)o2)cc1 | -15% | 2.78
CCOc1cc(N2CCCN(C(=O)c3cccc(F)c3)CC2)ncn1 | -9% | 0.87
C=CCC(O)(CC=C)CN1CC(=O)N2CC[C@@H](O)C[C@H]2C1=O | 1% | -0.17
COCCO[C@H]1CCCN(C(=O)c2ncoc2C2CC2)C1 | -5% | 0.58
Cc1ccc([C@@H]2c3ccsc3CCN2C(=O)CN(C(C)(C)C)S(=O)(=O)c2ccc3ccccc3c2)cc1 | -14% | 1.54
Cc1cc(CN(CCn2cccn2)Cc2cc(C)on2)no1 | -3% | 0.42
COc1cccc(C(=O)N/C(=N/c2ccc(F)cc2)NCc2ccccn2)c1 | -6% | 0.59
COc1ccc(CN2C[C@@H]3C[C@H]2C(=O)N3c2ccccc2F)c(F)c1 | -9% | 1.26
CCCN1CCCN(Cc2cncn2C(C)C)CC1 | -13% | 2.58
O=C(NC[C@@H](c1ccco1)N1CCCC1)N1CCC1 | -11% | 1.98
Cc1cc(CN(C)[C@@H](C)c2ccc(F)cc2)on1 | 1% | -0.07
Cc1ccc(-c2noc(C(F)(F)C3CCNCC3)n2)o1 | -4% | 0.71
Cc1ccc(C)c(S(=O)(=O)NCCCOC2CCCCC2)c1 | 3% | -0.39
COc1ccc(CNC(=O)CN2C(=O)CCn3nc(-c4ccc(OC)cc4)cc32)cc1 | 1% | -0.08
CCN(CCC(=O)Nc1nc2ccccc2s1)Cc1noc(C)n1 | -7% | 1.12
O=C(Cc1c(F)cccc1Cl)N1CC(S(=O)(=O)NC2CCCC2)C1 | -16% | 2.68
CC(C)C(=O)N1CCc2ccc(OCC(=O)NCc3ccccc3)cc2[C@@H]1c1ccccc1 | -20% | 1.93

SMILES | % Inhibition | Z score
COC(=O)CN[C@H](c1c(F)cccc1F)C(F)(F)F | -10% | 1.15
CN1CCC2(CC1)CN(C(=O)c1cc3sccc3[nH]1)CCCN2C | 7% | -1.4
COc1cc(OC23CCCN(CC2)C3)ccc1CN1CCCC1 (centres undefined) | -4% | 0.61
CCCn1cnnc1[C@H](C)NC(=O)c1c[nH]c2ccc(OC)cc2c1=O | -13% | 1.4
Cn1cc(C#N)cc1C(=O)OCc1cccnc1-n1cccn1 | -1% | 0.1
COc1ccccc1/C=C/CN1CCC(c2cc[nH]n2)CC1 | 3% | -0.57
CN(CC1CCC2(CCCC2)O1)C1C2CCOC2C1(C)C (centres undefined) | 7% | -1.28
O=C(Cc1ccc(S(=O)(=O)Nc2ccc(Cl)cc2)s1)N1CCCCC1 | 3% | -0.65
Cc1nn(C)cc1[C@H](C)NC(=O)NCc1nc(C(F)(F)F)no1 | -7% | 1.34
CCC(C)OCC(=O)N1CC[C@H](C(=O)OC)[C@H](C)C1 (some centres undefined) | 3% | -0.4
Cc1cc(CN(C)Cc2c(C(=O)N3CCCCC3)nc3sccn23)n[nH]1 | -7% | 1.25
COc1cccc(N2CCN(C(=O)c3cn4nc(OC)ccc4n3)CC2)c1 | -7% | 1.03
CC(C)(CNC1[C@@H]2CCCC[C@@H]2C1(C)C)NS(C)(=O)=O (some centres undefined) | -7% | 0.7
COc1ccc(NC(=O)N2CC[C@H](C3CC3)C2)cc1OC | -3% | 0.58
O=C(NC1(c2cccs2)CCCC1)c1cccs1 | 4% | -0.52
C[C@@H](CCC(=O)N(C)Cc1cc2cc(F)ccc2[nH]1)N1CCOCC1 | 4% | -0.8
CC(C)N1C2CCC1CN(C(=O)c1ccc(OCC3CC3)nc1)CC2 (centres undefined) | 2% | -0.15
COc1ccc(CC(=O)N[C@@H](Cn2nccn2)C(C)C)cc1OC | 2% | -0.37
O=C(CS(=O)(=O)c1ccc2c(c1)S(=O)(=O)N=CN2)Nc1ccc(F)cc1 | 1% | -0.12
O=S1(=O)CCCC1CNC1CCCCC1C1CCCCC1 (centres undefined) | -2% | 0.18
Cc1ccc(-n2[nH]c(C(=O)N3CCN(C)C[C@H]3C(C)C)cc2=O)cc1 | 1% | -0.11
O=C(NCc1cccnc1)[C@]1(F)CCCN(S(=O)(=O)c2ccccc2)C1 | 5% | -0.85

SMILES | % Inhibition | Z score
COc1ccc(Cc2nc([C@H](N)[C@H](C)O)n(-c3cccnc3)n2)cc1 | -12% | 1.6
COC[C@H](C)N1CCN(C(C)=O)CC1 | -6% | 0.76
COc1ccccc1N1CCN(C(=O)CN2C(=O)c3ccccc3Oc3ncccc32)CC1 | 6% | -0.98
CN(C)c1cccc(C(=O)Nc2cccc3nsnc23)c1 | -5% | 0.52
CC1(O)CCCN(C(=O)NC2CCCOCC2)C1 (centres undefined) | -9% | 0.77
CCCCN(C(=O)c1cc(CN2CCC(O)CC2)on1)C1CCCCCC1 | -13% | 1.29
CC(=O)c1ccc(N2CCN(C3CCC(C)C3)CC2)cc1 (centres undefined) | -7% | 1.22
Fc1ccc(Cl)cc1CN1CCO[C@H](C2CC2)C1 | -2% | 0.36
COc1ccc2ncn(CCCOC3CCCC3)c(=O)c2c1 | -11% | 0.98
Cc1ccc(S(=O)(=O)Nc2cccc(C(=O)N3CCC[C@H]3C(=O)NC3CCCC3)c2)c(C)c1 | 18% | -2.07
CCOC(=O)c1nc2ccccc2nc1Nc1cccc(OC)c1 | 3% | -0.32
C[C@]1(F)CCN(C(=O)c2ccsn2)C1 | -1% | 0.17
Cc1cc(C(=O)NCCN2C(=O)COC2=O)nn1C | -7% | 1.33
CC1CCN(c2nc3c(c(Oc4cccc(F)c4)n2)CN(C(=O)Nc2cccc(Cl)c2)CC3)CC1 | -18% | 2.82
Cc1cccc(C#N)c1/N=C1\CCCN1C | 7% | -0.82
Cc1cc(=O)c(C(=O)N[C@@H](C)c2nc(C3CC3)no2)cn1C | -14% | 2.54
CS(=O)(=O)c1ccc(-c2nnc(NC(=O)COc3ccc(Cl)cc3Cl)o2)cc1 | -4% | 0.89
Cc1cncc(C(=O)NC[C@H](O)C2CCCCC2)c1 | -6% | 0.63
Cc1cc(C)n(C)c(=O)c1C(=O)Nc1ccccc1CN1CCCCC1 | -15% | 1.47
CC(C)Nc1nc(NC2CCCC2)nc(N2CCOCC2)n1 | 28% | -3.31
Cc1ccc2oc(-c3noc(/C=C/c4ccco4)n3)c(C)c2c1 | 7% | -0.84
